From ChEMBL document CHEMBL4888484, “Replenishing the malaria drug discovery pipeline: Screening and hit evaluation of the MMV Hit Generation Library 1 (HGL1) against asexual blood stage Plasmodium falciparum ,using a nano luciferase reporter read-out” (2022)
The campaign covered roughly 4,800 compounds. About 420 (8.8%) showed an effect of 50% or more. This is one part of the list.

These compounds were tested on Plasmodium falciparum (assay: Confirmatory screen in NF54 nanoGlo assay, in single point, at 2uM, 72h). Conditions: timepoint 72 hour.
Type: functional, Erythrocyte

| SMILES | % Inhibition [%] |
| --- | --- |
| CN(C)c1nc(N)nc(CN2CCOc3ccc(F)cc32)n1 | -5 |
| C[C@@H](C(=O)Nc1cc(C(F)(F)F)c[nH]c1=O)n1cc(Cl)cn1 | -9 |
| CC(C)CCn1nnnc1[C@]1(N(C)C)CCCN(C(=O)c2cccn2C)C1 | 88 |
| Cc1c(CN2CCc3ccccc32)cnn1C | -1 |
| O=C(Nc1ccc(Cc2ccc(NC(=O)c3ccc(Br)cc3)c(O)c2)cc1O)c1ccc(Br)cc1 | 3 |
| CS(=O)(=O)N[C@H]1CCCN(c2ncc(-c3ccccc3)s2)C1 | -18 |
| Cc1cc(C)cc(-n2c(=O)c3sccc3n(CC(=O)Nc3ccc(N(C)C)cc3)c2=O)c1 | 16 |
| c1ncc(N2CCN3CCC[C@H]3C2)nc1OCC1CCCC1 | -7 |
| O=C(NCC1CCCN(C(=O)C2CC3CCC2C3)C1)Nc1cccc(F)c1 (configuration not stated) | 0 |
| c1nc2nc[nH]c(NC3CCCCC3)c-2n1 | 10 |
| COc1ccc(OC)c(NC(=O)Cn2cnc3nc(N4CCOCC4)ncc3c2=O)c1 | 8 |
| N#Cc1cc2cc(Cl)cnc2nc1N1CCCCC1 | 6 |
| COc1ccc(C(O)CN2CCC(c3ccccc3)C2)cc1F (configuration not stated) | 13 |
| CCCCn1nnc(N(C(=O)c2cccc3c(Br)cccc23)C(=O)c2cccc3c(Br)cccc23)n1 | -1 |
| CCc1ccc(-c2cc3c(=O)n(CC(=O)N4CC(C)CC(C)C4)ncn3n2)cc1 (configuration not stated) | -1 |
| CC1(C(=O)NC(C#N)c2cccc(Cl)c2)CC2CCC1O2 (configuration not stated) | 2 |
| Cc1cccc([C@@H](NC(=O)Nc2ncco2)C(F)(F)F)c1 | -10 |
| Cc1ccc2c(c1)C(NC(c1cccnc1)c1ncc[nH]1)CCC2 (configuration not stated) | 2 |
| Cc1ccc(OCCCOc2ccc(CO)nc2)cc1C | 3 |
| CCN(C(=O)[C@H]1CCOC1)c1ccc(C(F)(F)F)cc1 | 3 |
| CC1=CC(=[N+](CCO)CCO)C=C/C1=C(\c1ccc(N(CCO)CCO)cc1C)c1ccccc1Cl | 91 |
| O=C(C1CC1c1ccccc1)N1CCC(c2nc3ccccc3o2)CC1 (configuration not stated) | 4 |
| O=C1C[C@@]2(CCCN(c3nc(C4CC4)ns3)C2)CN1 | -7 |
| CC1CCN(C(=O)c2c(-c3ccccc3)nc3n2CCS3(=O)=O)CC1 | -2 |
| COc1cccc(-c2cc(O)cc(CC[C@H]3CCCCN3)c2)n1 | 73 |
| c1coc(CNc2nc(Nc3cccc4ccccc34)nc3ccccc23)c1 | 20 |

| SMILES | % Inhibition [%] |
| --- | --- |
| O=S(=O)(c1cccc(Cl)c1)N1CCc2nc(N3CCCCC3)nc(Oc3ccccc3)c2C1 | 73 |
| CCC1(CC)NC(=O)N(CC(=O)Nc2cccc(CC(=O)OC)n2)C1=O | -19 |
| Cc1cc(Cl)ccc1OCc1cccc(-c2nc3c4cn[nH]c4ncn3n2)c1 | -1 |
| COCCC(=O)N1CC[C@H](c2nc(C3CCOCC3)no2)C1 | -3 |
| Cc1cc(C)c(OC(=O)c2ccc(Cl)cc2Cl)c(CNC(=O)c2ccccc2)c1 | -16 |
| Cc1nnc2sc(-c3cnn(-c4ccccn4)c3C(F)(F)F)nn12 | -17 |
| CN(C(=O)c1ccc2ncsc2c1)c1ccccc1 | -4 |
| COc1ccc(C)cc1NC(=O)N1CC(c2nc(C(C)C)nn2C)C1 | -5 |
| Cc1ccc(-c2cc3c(N4CC=C(c5ccccc5)CC4)nccn3n2)c(C)c1 | 4 |
| CCOC(=O)C1(C(=O)OCC)CN(c2ccccc2)[C@H](C(=O)OC)C1(C(=O)OCC)C(=O)OCC | -1 |
| CCO[C@H]1C[C@H](NC(=O)Nc2ccc(F)c(C3CC3)c2)C1 | 2 |
| CCCC(=O)N1CCN(c2c(C)n(-c3ccccc3)c(=O)n(C)c2=O)CC1 | 2 |
| COc1cc(-c2nc3ncnn3c(N)c2C#N)cc(OC)c1OC | -21 |
| O=C(Nc1n[nH]c(Cc2cccc(F)c2)n1)[C@@H]1CCCc2[nH]ncc21 | -8 |
| COCc1cc2nn(CC(=O)Nc3ccc(F)c(F)c3)c(=O)n2c(-c2ccccc2)n1 | -11 |
| O=C(Nc1ccc2c(c1)OCCO2)N1CCN(c2nc3cccnc3n(Cc3ccccc3)c2=O)CC1 | -6 |
| O=C(Nc1cn[nH]c1)C(=O)Nc1ccc(F)c(F)c1F | -3 |
| Nn1c(-c2ccccc2)c(-c2ccccc2)c(-c2ccccc2)cc1=O | -19 |
| COc1cc(NS(=O)(=O)c2ccc(-n3cnnn3)cc2)nc(OC)n1 | -5 |
| COC(=O)c1ccccc1NC(=O)[C@@H]1C(=O)N(c2ccc(Cl)cc2)N=C1C | -10 |
| Cc1c(C(=O)NC2CC2)cc(-c2ccccc2)n1C | -3 |
| Cc1ccccc1C(=O)N(Cc1cccc(F)c1)c1ccc(CC(=O)NCCN2CCCCC2)cc1 | 44 |
| CN(C)c1c(F)c(F)c2cc3c(C(C)(C)C)nn(C)c3nc2c1F | 3 |
| O=C(Cc1ccc(Oc2nccc(C(F)(F)F)n2)cc1)NCCO | 1 |
| CN(C)c1ccc(Nc2ccc(F)cc2S(=O)(=O)C(F)(F)F)cn1 | -7 |
| Cc1nc(-c2cccnc2)nc(NCCNC(=O)C(C)(C)C)c1C | -2 |

| SMILES | % Inhibition [%] |
| --- | --- |
| COCCOc1ccc2c(n1)CCN(C(=O)c1ccc(OC)c(OC)c1)C2 | -12 |
| O=C([C@H]1CCCN(C(=O)N2CCc3sccc3C2)C1)N1CCc2[nH]ncc2C1 | -15 |
| O=S1(=O)NC(c2cccc(F)c2)=Nc2ccc(S(=O)(=O)N3CCOCC3)cc21 | -12 |
| CC[C@@]1(c2ccc(NC(=O)Cc3c[nH]c4ccccc34)cc2)CCC(=O)NC1=O | -3 |
| O=C(Nc1ccsc1C(=O)N1CCCCC1)c1cnccn1 | 8 |
| O=C(CN1CCN(Cc2ccc(F)cc2)C1=O)N1CCN(c2ccccc2)CC1 | -6 |
| Nc1nc(Cc2ccccc2)c(Br)c(=O)[nH]1 | 2 |
| O=C1c2ccccc2C(=O)N1CCc1csc(Cn2cncn2)n1 | 3 |
| CCC[C@H](NC(=O)c1ccc(Cl)o1)c1nnn[nH]1 | 6 |
| CC(CO)(CO)NCc1ccc(F)cc1F | -5 |
| FC(F)(F)c1cccc([C@@H]2CNC3(CCCC3)CO2)c1 | -13 |
| O=C(CN1CCN(Cc2cccc(Cl)c2)C1=O)N1CCN(c2ccccc2)CC1 | -7 |
| CC1(C)C2Cc3nc4c(cc3C1C2)CCC4 (configuration not stated) | -11 |
| Cc1cccc(NC(=O)[C@@H](C#N)C(=O)C2CCC2)c1 | 0 |
| Cc1cccc(C)c1Oc1ccccc1NC(=O)CCc1nnc[nH]1 | 5 |
| C#CCN(C(=O)NC1CCN(C(C)=O)CC1)C1CCCC1 | -12 |
| O=c1[nH]c2nc(N3CCN(c4ccccn4)CC3)ncc2c(=O)n1-c1ccc(F)cc1 | -2 |
| CC1CCC(NC(=O)C(c2ccccc2)c2ccccc2)CC1 (configuration not stated) | 10 |
| CCc1ccc(C2=Nc3cccnc3N(CC(=O)Nc3c(C)cc(C)cc3C)C(=O)C2)cc1 | -4 |
| Cc1ccc(S(=O)(=O)Nc2c(-n3cnnc3)nn(C)c2C)c(C)c1 | -7 |
| c1ccc2[nH]c(Nc3nc4ccccc4s3)nc2c1 | 20 |
| C#CCCCCC(=O)Nc1ncccc1Cl | -2 |
| O=C(O)C[C@H](NC(=O)c1cscn1)c1ccc(Cl)s1 | -11 |
| CC(C)[C@H](CNc1ncnc2ccsc12)N1CCN(C)CC1 | 5 |
| C[C@H]1C(=O)N(C)C[C@@H](CNS(=O)(=O)c2ccccc2)N1Cc1cccnc1 | -3 |
| CC1=NN(c2ncc(C(F)(F)F)cc2Cl)C(=O)c2ccccc2O1 | 1 |

| SMILES | % Inhibition [%] |
| --- | --- |
| CCCNC(=O)c1sccc1NC(=O)c1cnccn1 | 2 |
| CC(C)(C)C1CC(NC(=O)C2CC=CC2)CCO1 (configuration not stated) | -5 |
| CC1(C)CC(=O)C(CC(=O)N2CCCCC2)(Cc2ccccc2)C(=O)C1 | 2 |
| CCOC(=O)C(Nc1cccc(NC(C(=O)OCC)C(=O)OCC)c1)C(=O)OCC | -16 |
| O=C(O)c1nccn1CNc1ccncc1 | -2 |
| O=C(C[C@@]1(O)C(=O)N(Cc2ccc(Cl)cc2Cl)c2ccccc21)c1ccccn1 | -10 |
| CCN(C(=O)Cn1ncn2nc(-c3cccc4ccccc34)cc2c1=O)c1ccccc1 | 1 |
| Oc1cc(-c2ccc(F)cc2)nn1-c1nc2ccccc2[nH]1 | -9 |
| CNc1nc(-c2ccccc2)nnc1C(F)(F)F | 0 |
| O=C(O)CCCC(=O)NCCc1ccc(Cl)cc1 | -14 |
| CCCc1nnc(N(Cn2nnc3ccccc32)C(=O)CN2CCOCC2)s1 | 0 |
| CC1(C)C[C@@](CCNCc2ccc(Cl)cc2)(Cc2ccccc2Cl)CCO1 | -7 |
| CCCc1noc([C@H](C)OC(=O)c2cc[nH]n2)n1 | -7 |
| CCn1nc(C)c(CN(C)C(=O)c2nn3cccnc3c2Cl)c1C | -2 |
| FC(F)(F)c1cnc(-c2csc(NC3CCCCC3)n2)c(Cl)c1 | 9 |
| CC(C)(C)C(=O)N1CCC(O)(CS(=O)(=O)Cc2ccc(Cl)cc2)CC1 | 4 |
| CC(C)(C)c1cc(C[C@H]2CNCC[C@H]2CC(=O)N2CCC(Cc3ccccc3)CC2)no1 | 0 |
| O=C(CCc1nc2ccccc2[nH]1)N1CCN(c2ccccn2)CC1 | -3 |
| O=C(NC1CCCC1)N1CCN(c2nc3cccnc3n(Cc3ccccc3)c2=O)CC1 | 5 |
| CCc1sc(N(C(=O)Cc2ccccc2)c2ccc(C)cc2C)nc1-c1ccc(Cl)cc1 | 4 |
| Cc1ccc(NC(=O)Cn2c(=O)n(Cc3ccco3)c(=O)c3ccccc32)c(C)c1 | -12 |
| COc1cccc(-c2cc3c(N4CC=C(c5ccccc5)CC4)nccn3n2)c1 | -2 |
| COc1cc(C(C)(C)C)c(OCC(=O)N(c2ccccc2)c2ccccc2)cc1C(C)(C)C | 0 |
| Cc1cc(C)cc(-c2cc3nc(C)cc(N4CCC(C(=O)Nc5ccc(C)c(Cl)c5)CC4)n3n2)c1 | 0 |
